Among the data in PMC10726135 are binding signal (log2 normalized intensity) values, retold here.

The list shows a part of the results. At the low end of the ranking the order means little. Measured with an extract: partners may take part in the binding.

The target in the experiment is T1, HNF4alpha2 (COS-7 nuclear extract) (UniProt P41235).
T1 sequence: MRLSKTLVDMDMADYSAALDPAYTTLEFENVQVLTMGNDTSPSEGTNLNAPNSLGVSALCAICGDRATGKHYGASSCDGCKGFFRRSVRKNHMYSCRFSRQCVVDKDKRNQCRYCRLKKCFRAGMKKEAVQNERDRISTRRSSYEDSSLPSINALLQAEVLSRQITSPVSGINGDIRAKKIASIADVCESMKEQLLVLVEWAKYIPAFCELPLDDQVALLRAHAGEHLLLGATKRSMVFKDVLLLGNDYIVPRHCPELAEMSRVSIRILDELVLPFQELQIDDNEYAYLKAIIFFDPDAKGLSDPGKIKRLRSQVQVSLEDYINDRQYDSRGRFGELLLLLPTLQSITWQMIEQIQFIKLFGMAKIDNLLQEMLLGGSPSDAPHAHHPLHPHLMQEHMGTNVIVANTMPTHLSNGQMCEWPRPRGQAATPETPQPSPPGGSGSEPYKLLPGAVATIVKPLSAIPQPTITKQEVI
Put plainly: protein-binding microarray. The note with it: COS-7 nuclear extract on double-stranded Agilent 4x180k PBM; binding buffer, salt, pH and temperature not given; high values mean tight binding; double strand, one strand shown; sequences stand for … in …GCCTAGGGAGATTAGAGTATCGGTCGA
Turning to GAGGCTGACATCTCTCTGGCCTGTGGGGAG, the binding signal (log2 normalized intensity) is -1.02.
Next, TTAGCAGATAAATCTAGGCCTAGGCATTGA: -0.468; TTTGGAATTGTGTCACTCCCCAGGAATGTG: 1.89; ACTTAACTACTACACTAAAAAAAAAAAAAT: -1.13.
Next, TCATGTGAAGACACTGAGGAAAAGCTGTCT: -1.11; TCCATTTCTAGACACCAAACACAGTTGCTG: -1.07.
The value for TCGACCTTTGTGGGCTTCAGACATTGCAAA was 0.574.
For the sequence TGCCCTTTGCCCTCACTGGTAGAAGGCAGC, the binding signal (log2 normalized intensity) stood at 4.58.
For TTGCCCTTCTTGGATGCCCTTCCCTAACCC, the binding signal (log2 normalized intensity) came to 2.66.
Next, AGCGTACGCAGGGCGGCCGGCGGAGCGCCG: -1.3; TGACCTTGGACTCTGCCCTTGGCCTACTTA: 4.3; CCATGCAAATTGCTGACTTTCTGTGTCTTG: 0.751.
TACATAACCACCACTGGGCAATTGGTTTCC: the binding signal (log2 normalized intensity) worked out at 0.59.
With GTAGTTACCTGATGAAGCAATAGGAATCAC, the binding signal (log2 normalized intensity) is -0.373.
The value for GGGCGTGAACTGTGACTTTTATCTTAGGTA was 1.24; that for CTATCAGGAAACTCTTTCCTAACAGTGAAT was -1.09.
The value for TCTTAGAAGATAAAGTGTCTCCCTCTGCAG was 0.902; that for TCTATCAAAGGAGAAAAAGTCAACACTTAG was -1.16.
CAGCAGTAGGCTCTCGGGCCAGCTGTACAA: the binding signal (log2 normalized intensity) was -1.1.
Next, AGTTGGAATTTCAGAAGCAGGTCAATAGGG: 0.508; CTGAGGAAGTGCTGACCTTTGGTCTAAACC: 6.27.
Consider ACTGCTCCCTCTGCTCCCCTGGCCTCACCC, for which the binding signal (log2 normalized intensity) was 2.66.
Next, TGACTATAGCGTCTCCTGGCCTCTGTGAAG: -0.808.
The value for ACTGCAAGGCAAACACTCAAGGTCCAAACA was 0.279.
Next, AGCGGAGCATCCCTCGGGCCGGGAAACGCC: -1.11.
In the case of CTGGCCTCCTGCGGTCCGGACTCTGCCCCA, the binding signal (log2 normalized intensity) is 4.41.
With GAAAAGACAGGGTAATTTACAGAACTCTTC, the binding signal (log2 normalized intensity) is -1.16.
As for CTAACCTTTGACCATCCACGGATGCATGAT, the binding signal (log2 normalized intensity) was 3.51.
For the sequence GTCTAGCTTGTTCTCTCCCCCAACCCCACC, the binding signal (log2 normalized intensity) turned out to be 5.54.
The value for TTAAACTGCCGCGCCACTGCGTCCAGCCAC was -1.2; that for TGCTCTCTGTCCCTGCACCCTACCCCCATA was 4.72; that for GCCTGCATGGGCTGTCACCTTTACCCCCAC was 5.09.
The value for CGGCGGGGTCACGTGGGGCCGGTACAAAAG was 1.37; that for TACTGCCTCAGGGAGGAGTTGTCATCATAA was -0.82.
For ATATGTGCCTGCCTTATACAACCTCTGTAA, the binding signal (log2 normalized intensity) stood at 0.759.
For AGAATGAGACCTGCTAGGCTGCATTCTCTG, the binding signal (log2 normalized intensity) was -0.977.
Next, AAACTGGAGGCCGCGACAAGCGTCGCTGAG: -1.26.
The value for TTCTGTCCTCTCAAAGTCCACCCGGCCAGC was 4.04; that for AAGTAGCCTGGTCAGGAACAAAGGTCACAG was 5.05.
Next, TCCCTTTGATATTTATCAAGATGAACTTTG: 4.93; AGATAAGAAAGAATCAGCACAAGAATGCTA: -1.05; TCTTCAGGCTGGGGCCCCATCGACCTTTGC: 6.79.
For AAACAAAAGCTGCTTCTGTAAAACTCCTGT, the binding signal (log2 normalized intensity) was -1.09.
On to GAGCCTGCAAGGGAGACCAGGAAAGTGAAT, for which the binding signal (log2 normalized intensity) was -1.08.
Take GCAGGTTCTCAGGCCAATCATATCTCCCAG: the binding signal (log2 normalized intensity) is -1.06.
The value for GTCTGCTACCATCAGATAAGCTCAGGAGAA was -1.2; that for AAGGACTGTTGGACCTCGAACTCCAGTGGG was 2.31; that for ACTTGTCTCACATCTGATAGCTAAACCAGA was -1.12.
Consider CAGATACCCAGGCATATCCAACCTTCTCCC, for which the binding signal (log2 normalized intensity) is -1.11.
The value for GTGTGCGTGGGTGGGAAATCATTCCAGCTA was -1.25.
The value for CCCATGGTCTGTAGAAGGCGCTGTGAAGCA was -1.
As to ATTTGGCTTTGAATTCCACTTCTACCACTT, the binding signal (log2 normalized intensity) is 1.01.
Next, CCCTGGTCTCTCTTACCCAACCAAAAACAA: 3.11.
Turning to TACACAGCTGATGGAAGTTTGCCCTGGTTG, the binding signal (log2 normalized intensity) was 2.18.
In the case of TGCATTGGAGGCCAGATGCCAACTGTGGAC, the binding signal (log2 normalized intensity) amounted to 1.27.
Next, CCTCTCAGGAATGTGGATGCTAAAAGTGAA: 0.734; TCCTCATTCACCAGGCAATCAGCCTTAGGT: -1.2.
Next, AATTCCAGTTTGGACTTTGATCCTGATGAC: 9.15; CACCAAAGCCCAAGGGATCGTCCAAATACC: -1.17.
Next, TGTAGGGAGTGGTTCCCACAGCCCAACTCG: -1.18.
On to CAAGCCGTTCCCTGTACCTAGAATTCTTTC, for which the binding signal (log2 normalized intensity) was -0.326.
For CGGCCGACGTGACCCGCCGCCCGAGGTCAC, the binding signal (log2 normalized intensity) turned out to be 3.01.
As for TTCCCTTATCAGGACTTTGTGATTACATTG, the binding signal (log2 normalized intensity) was 2.35.
The value for GGTGGTGACCCCAGACCTTAGTCTTCATGG was 1.47; that for TGGTGCTATGTCCCTGACTGTGTGGCTTGC was 0.959.
Next, CCACTTGGTGACTGTCATTTCCTTACAAAC: 0.0801; AGAGGATTAAAAGATAAAACATTGTACCTT: 1.9.
Next, CAATGGCCTTGCTGCGGATCAAAGGAGCTG: -0.821.
Turning to CCCTTATCAGCTTATCTCAAGAATTGTCTA, the binding signal (log2 normalized intensity) was 1.06.
On to GAGCCAGTGAAGACTGAAAAGAGATAACTA, for which the binding signal (log2 normalized intensity) is -1.13.
In the case of GATCAGTGAGAAGAGAAACACATGCAATCA, the binding signal (log2 normalized intensity) was -1.1.
Next, GTTAGATTAGTGTGCAGCTTTGTGTAAAAC: 0.946; ATACTATTGATAACATCTAACAGCTGATGA: 0.555.
